# Measurements from the supplement of paper PMC8728848.
# The list shows a part of the results.
# B1: Gal 3 (Canis lupus) (protein)
# chain: MADSFSLNDALSGSGNPNPQGWPGPWGNQPAGAGGYPGASYPGAYPGQAPPGGYPGQAPPGGYPGQAPPGGYPGQAPPGGYPGQAPPGGYPGQAPPGTYPGPTAPAYPGPTAPGTQPGQPSGPGAYPPPGQPSAPGAYPAAGPFGIPAGPLTVPYDLPLPGGVKPRMLITILGTVRPSANRLALDFKRGNDVAFHFNPRFNEDNKRVIVCNTKLDNIWGKEERQAAFPFESGKPFKIQVLVESDHFKVAVNDAHLLQYNHRMKNLPEISKLGISGDIDLTSASYAMI
# Columns and labels:
# Experiment in all cases: glycan array binding signal (z-score within array); higher = stronger binding
# Conditions in all cases: glycan notation: IUPAC condensed, linker removed
# [1] = target: GlcNAc(b1-3)[GlcNAc(b1-6)]Gal(b1-4)GlcNAc
# How it was run: (§1)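 Glycan array binding is given as a within-array Z-score, which can be read as non-binding when negative. The arrays, 3228 of them, came from the Consortium for Functional Glycomics database and were retained only where the protein sequence was available. Z-scores were averaged across arrays of the same protein sequence at different concentrations or buffers and across linkers.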
# [2] = target: GlcNAc(b1-3)[GlcNAc(b1-6)]GalNAc
# How it was run: as §1
# [3] = target: GlcNAc(b1-4)Gal(b1-4)GlcNAc
# How it was run: as §1
# GlcNAc(b1-4)GlcNAc = target: GlcNAc(b1-4)GlcNAc
# How it was run: as §1
# [4] = target: GlcNAc(b1-4)GlcNAc(b1-4)GlcNAc
# How it was run: as §1
# [5] = target: GlcNAc(b1-4)GlcNAc(b1-4)GlcNAc(b1-4)GlcNAc(b1-4)GlcNAc
# How it was run: as §1
# [6] = target: GlcNAc(b1-4)GlcNAc(b1-4)GlcNAc(b1-4)GlcNAc(b1-4)GlcNAc(b1-4)GlcNAc
# How it was run: as §1
# [7] = target: GlcNAc(b1-4)[GlcNAc(b1-6)]GalNAc
# How it was run: as §1
# [8] = target: GlcNAc(b1-6)Gal(b1-4)GlcNAc
# How it was run: as §1
# GlcNAc(b1-6)GalNAc = target: GlcNAc(b1-6)GalNAc
# How it was run: as §1
# GlcNAc3Prop(b1-4)GlcNAc = target: GlcNAc3Prop(b1-4)GlcNAc
# How it was run: as §1
# [9] = target: GlcNAc6S(b1-3)Gal(b1-4)GlcNAc
# How it was run: as §1
# Kdn(a2-3)Gal(b1-3)GalNAc = target: Kdn(a2-3)Gal(b1-3)GalNAc
# How it was run: as §1
# Kdn(a2-3)Gal(b1-3)GlcNAc = target: Kdn(a2-3)Gal(b1-3)GlcNAc
# How it was run: as §1
# Kdn(a2-3)Gal(b1-4)Glc = target: Kdn(a2-3)Gal(b1-4)Glc
# How it was run: as §1
# Kdn(a2-3)Gal(b1-4)GlcNAc = target: Kdn(a2-3)Gal(b1-4)GlcNAc
# How it was run: as §1
# [10] = target: Kdn(a2-3)Gal(b1-4)[Fuc(a1-3)]GlcNAc
# How it was run: as §1
# Kdn(a2-6)Gal(b1-4)GlcNAc = target: Kdn(a2-6)Gal(b1-4)GlcNAc
# How it was run: as §1
# [11] = target: Man(a1-2)Man(a1-2)Man(a1-3)Man
# How it was run: as §1
# [12] = target: Man(a1-2)Man(a1-2)Man(a1-6)[Man(a1-3)]Man
# How it was run: as §1
# Man(a1-2)Man(a1-3)Man = target: Man(a1-2)Man(a1-3)Man
# How it was run: as §1
# [13] = target: Man(a1-2)Man(a1-3)[Man(a1-2)Man(a1-6)]Man
# How it was run: as §1
# [14] = target: Man(a1-2)Man(a1-3)[Man(a1-2)Man(a1-6)]Man(a1-6)[Man(a1-2)Man(a1-2)Man(a1-3)]Man
# How it was run: as §1
# [15] = target: Man(a1-2)Man(a1-3)[Man(a1-2)Man(a1-6)]Man(a1-6)[Man(a1-2)Man(a1-2)Man(a1-3)]Man(b1-4)GlcNAc(b1-4)GlcNAc
# How it was run: as §1
# [16] = target: Man(a1-2)Man(a1-3)[Man(a1-6)]Man(a1-6)[Man(a1-2)Man(a1-3)]Man(b1-4)GlcNAc(b1-4)GlcNAc
# How it was run: as §1
# [17] = target: Man(a1-2)Man(a1-6)[Man(a1-3)]Man(a1-6)[Man(a1-2)Man(a1-2)Man(a1-3)]Man
# How it was run: as §1
# [18] = target: Man(a1-2)Man(a1-6)[Man(a1-3)]Man(a1-6)[Man(a1-2)Man(a1-2)Man(a1-3)]Man(b1-4)GlcNAc(b1-4)GlcNAc
# How it was run: as §1
# Man(a1-3)[Man(a1-6)]Man = target: Man(a1-3)[Man(a1-6)]Man
# How it was run: as §1
# [19] = target: Man(a1-3)[Man(a1-6)]Man(a1-6)[Man(a1-2)Man(a1-3)]Man(b1-4)GlcNAc(b1-4)GlcNAc
# How it was run: as §1
# [20] = target: Man(a1-3)[Man(a1-6)]Man(a1-6)[Man(a1-3)]Man
# How it was run: as §1
# [21] = target: Man(a1-3)[Man(a1-6)]Man(a1-6)[Man(a1-3)]Man(b1-4)GlcNAc(b1-4)GlcNAc
# How it was run: as §1
# [22] = target: Man(a1-3)[Man(a1-6)]Man(b1-4)GlcNAc(b1-4)GlcNAc
# How it was run: as §1
# Man(a1-6)Man = target: Man(a1-6)Man
# How it was run: as §1
# Man(b1-4)GlcNAc = target: Man(b1-4)GlcNAc
# How it was run: as §1
# Neu5Ac(a2-3)Gal = target: Neu5Ac(a2-3)Gal
# How it was run: as §1
# [23] = target: Neu5Ac(a2-3)Gal(b1-3)GalNAc
# How it was run: as §1
# [24] = target: Neu5Ac(a2-3)Gal(b1-3)GalNAc(b1-3)Gal(a1-4)Gal(b1-4)Glc
# How it was run: as §1
# [25] = target: Neu5Ac(a2-3)Gal(b1-3)GalNAc(b1-4)[Neu5Ac(a2-3)]Gal(b1-4)Glc
# How it was run: as §1
binder,measurement,setting,value
B1,glycan array binding signal (z-score),[1],-0.259
same,glycan array binding signal (z-score),[2],-0.251
same,glycan array binding signal (z-score),[3],-0.24
same,glycan array binding signal (z-score),GlcNAc(b1-4)GlcNAc,-0.248
same,glycan array binding signal (z-score),[4],-0.252
same,glycan array binding signal (z-score),[5],-0.275
same,glycan array binding signal (z-score),[6],-0.254
same,glycan array binding signal (z-score),[7],-0.262
same,glycan array binding signal (z-score),[8],-0.262
same,glycan array binding signal (z-score),GlcNAc(b1-6)GalNAc,-0.261
same,glycan array binding signal (z-score),GlcNAc3Prop(b1-4)GlcNAc,-0.246
same,glycan array binding signal (z-score),[9],-0.222
same,glycan array binding signal (z-score),Kdn(a2-3)Gal(b1-3)GalNAc,-0.259
same,glycan array binding signal (z-score),Kdn(a2-3)Gal(b1-3)GlcNAc,-0.149
same,glycan array binding signal (z-score),Kdn(a2-3)Gal(b1-4)Glc,-0.261
same,glycan array binding signal (z-score),Kdn(a2-3)Gal(b1-4)GlcNAc,-0.201
same,glycan array binding signal (z-score),[10],-0.248
same,glycan array binding signal (z-score),Kdn(a2-6)Gal(b1-4)GlcNAc,-0.272
same,glycan array binding signal (z-score),[11],-0.257
same,glycan array binding signal (z-score),[12],-0.267
same,glycan array binding signal (z-score),Man(a1-2)Man(a1-3)Man,-0.252
same,glycan array binding signal (z-score),[13],-0.264
same,glycan array binding signal (z-score),[14],-0.273
same,glycan array binding signal (z-score),[15],-0.256
same,glycan array binding signal (z-score),[16],-0.261
same,glycan array binding signal (z-score),[17],-0.262
same,glycan array binding signal (z-score),[18],-0.265
same,glycan array binding signal (z-score),Man(a1-3)[Man(a1-6)]Man,-0.258
same,glycan array binding signal (z-score),[19],-0.261
same,glycan array binding signal (z-score),[20],-0.272
same,glycan array binding signal (z-score),[21],-0.267
same,glycan array binding signal (z-score),[22],-0.266
same,glycan array binding signal (z-score),Man(a1-6)Man,-0.268
same,glycan array binding signal (z-score),Man(b1-4)GlcNAc,-0.261
same,glycan array binding signal (z-score),Neu5Ac(a2-3)Gal,-0.261
same,glycan array binding signal (z-score),[23],-0.256
same,glycan array binding signal (z-score),[24],-0.236
same,glycan array binding signal (z-score),[25],-0.238
